Common to all, as to test: glycan array binding signal (z-score within array); higher = stronger binding
Details in all cases: glycan notation: IUPAC condensed, linker removed

The target of one assay is Gal(b1-4)Glc. In outline: (§1)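 Glycan array data came from 3228 arrays in the Consortium for Functional Glycomics database, and only arrays with an available protein sequence were kept. Glycan names were put into IUPAC-condensed notation, and columns mapping to the same glycan were averaged. The binding signal is a within-array Z-score, averaged across arrays of one protein sequence run at different concentrations or buffers and across linkers. A negative Z-score can be read as non-binding.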

Another assay has as its target Gal(b1-4)Glc6S. In outline:
as §1

For a further assay, the target named is Gal(b1-4)GlcNAc. The essentials: as §1
Assay [1] has as its target Gal(b1-4)GlcNAc(a1-6)Gal(b1-4)GlcNAc. The essentials: as §1
The target in the next assay is Gal(b1-4)GlcNAc(b1-2)Man. In outline:
as §1

Assay [2] has as its target Gal(b1-4)GlcNAc(b1-2)Man(a1-3)Man(b1-4)GlcNAc(b1-4)GlcNAc. The essentials:
as §1

The target in assay [3] is Gal(b1-4)GlcNAc(b1-2)Man(a1-3)[Gal(b1-4)GlcNAc(b1-2)Man(a1-6)]Man(b1-4)GlcNAc(b1-4)GlcNAc. In outline: as §1
Assay [4] concerns the target Gal(b1-4)GlcNAc(b1-2)Man(a1-3)[Gal(b1-4)GlcNAc(b1-2)Man(a1-6)]Man(b1-4)GlcNAc(b1-4)[Fuc(a1-6)]GlcNAc. The essentials: as §1
Assay [5] addresses Gal(b1-4)GlcNAc(b1-2)Man(a1-3)[Gal(b1-4)GlcNAc(b1-2)Man(a1-6)][Gal(b1-4)GlcNAc(b1-4)]Man(b1-4)GlcNAc(b1-4)[Fuc(a1-6)]GlcNAc. The essentials:
as §1

The target in assay [6] is Gal(b1-4)GlcNAc(b1-2)Man(a1-3)[Gal(b1-4)GlcNAc(b1-2)Man(a1-6)][GlcNAc(b1-4)]Man(b1-4)GlcNAc(b1-4)[Fuc(a1-6)]GlcNAc. In outline: as §1
The target in assay [7] is Gal(b1-4)GlcNAc(b1-2)Man(a1-3)[GlcNAc(b1-2)Man(a1-6)]Man(b1-4)GlcNAc(b1-4)GlcNAc. In outline:
as §1

The target of assay [8] is Gal(b1-4)GlcNAc(b1-2)Man(a1-3)[GlcNAc(b1-4)][Gal(b1-4)GlcNAc(b1-2)Man(a1-6)]Man(b1-4)GlcNAc(b1-4)GlcNAc. The essentials: as §1
For assay [9], the target named is Gal(b1-4)GlcNAc(b1-2)Man(a1-3)[Man(a1-6)]Man(b1-4)GlcNAc(b1-4)GlcNAc. In outline: as §1
Assay [10] addresses Gal(b1-4)GlcNAc(b1-2)Man(a1-6)Man(b1-4)GlcNAc(b1-4)GlcNAc. The essentials:
as §1

For assay [11], the target named is Gal(b1-4)GlcNAc(b1-2)Man(a1-6)[GlcNAc(b1-2)Man(a1-3)]Man(b1-4)GlcNAc(b1-4)GlcNAc. The essentials:
as §1

In assay [12] the target is Gal(b1-4)GlcNAc(b1-2)Man(a1-6)[Man(a1-3)]Man(b1-4)GlcNAc(b1-4)GlcNAc. The essentials:
as §1

For assay [13], the target named is Gal(b1-4)GlcNAc(b1-2)[Gal(b1-4)GlcNAc(b1-4)]Man(a1-3)[Gal(b1-4)GlcNAc(b1-2)Man(a1-6)]Man(b1-4)GlcNAc(b1-4)GlcNAc. In outline: as §1
In assay [14] the target is Gal(b1-4)GlcNAc(b1-2)[Gal(b1-4)GlcNAc(b1-4)]Man(a1-3)[Gal(b1-4)GlcNAc(b1-2)[Gal(b1-4)GlcNAc(b1-6)]Man(a1-6)]Man(b1-4)GlcNAc(b1-4)GlcNAc. In outline:
as §1

Assay [15] deals with Gal(b1-4)GlcNAc(b1-2)[Gal(b1-4)GlcNAc(b1-4)]Man(a1-3)[GlcNAc(b1-4)][Gal(b1-4)GlcNAc(b1-2)Man(a1-6)]Man(b1-4)GlcNAc(b1-4)GlcNAc. The essentials:
as §1

For assay [16], the target named is Gal(b1-4)GlcNAc(b1-2)[Gal(b1-4)GlcNAc(b1-4)]Man(a1-3)[GlcNAc(b1-4)][Gal(b1-4)GlcNAc(b1-2)[Gal(b1-4)GlcNAc(b1-6)]Man(a1-6)]Man(b1-4)GlcNAc(b1-4)GlcNAc. The essentials:
as §1

Assay [17] deals with Gal(b1-4)GlcNAc(b1-2)[Gal(b1-4)GlcNAc(b1-6)]Man(a1-6)[Gal(b1-4)GlcNAc(b1-2)Man(a1-3)]Man(b1-4)GlcNAc(b1-4)GlcNAc. The essentials: as §1
In assay [18] the target is Gal(b1-4)GlcNAc(b1-2)[Gal(b1-4)GlcNAc(b1-6)]Man(a1-6)[Gal(b1-4)GlcNAc(b1-2)Man(a1-3)]Man(b1-4)GlcNAc(b1-4)[Fuc(a1-6)]GlcNAc. The essentials:
as §1

Experimental findings from the supplement of paper PMC8728848 are described below.

The list shows a part of the results.

B1: PfulAvr4 2 (Pseudocercospora fuligena) (protein)
chain: HHHHHHDYKDDDDKAKPIKPFACPPKDFTTTKCQGPVDCLYANPLSCLGYIQCVCDDDACSTATPYAKSCPTGLAWVEKLKRCDGIKKSACPKKMYEGS
Turning to B1, the “glycan array binding signal (z-score)” value was 0.459 with Gal(b1-4)Glc; -0.209 in the assay with Gal(b1-4)Glc6S; -0.16 with Gal(b1-4)GlcNAc; -0.269 in assay [1]; 1.54 with Gal(b1-4)GlcNAc(b1-2)Man; 0.015 in assay [2]. Besides, the “glycan array binding signal (z-score)” value is -0.347 in [3]; 0.017 in [4]; -0.405 in [5]; -0.397 in assay [6]; -0.331 in [7]; -0.216 in assay [8]. Also, the “glycan array binding signal (z-score)” value in assay [9] was 9.66; in assay [10], -0.207; in assay [11], -0.282; in assay [12], -0.138; in [13] it was -0.237; in assay [14], -0.113. Further, the “glycan array binding signal (z-score)” value in assay [15] is -0.146; in assay [16], 0.387; in assay [17], 0.132; in assay [18], -0.305.
